In PubChem BioAssay AID686978 (National Center for Advancing Translational Sciences (NCATS), 2013):
The campaign covered roughly 420,000 compounds. About 64,000 (15%) were called active. Inconclusive results, whose numbers are uncertain, are shown with a selection of clear calls. Calls follow the shape of the dose curve; as a rule, active = well fitted inhibition curve with a large enough effect; inconclusive = small, poorly fitted or top-dose-only effect; inactive = flat fitted curve, though single readings scatter. No potency is given beside an inconclusive call; the fits are too rough.

Assay: qHTS for Inhibitors of human tyrosyl-DNA phosphodiesterase 1 (TDP1): qHTS in cells in absence of CPT; also: nearly all actives have a fitted effect of over 55% in size
Settings: DT40 Tdp1-/- hTDP1 cells, no CPT, ATP luminescence, 48 h; activity change, negative = growth inhibition: at 46.2 µM (top of the series) unless noted
In short: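 Seeded 400 DT40-hTDP1 cells/well (vehicle DMSO, no 20 nM CPT); pinned compounds; ≥48 hr at 37 °C; CellTiter-Glo luminescence as viability measure.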
% is scaled to controls: 0 for no effect and ±100 for the full control effect; potency is read from the fitted curve at half-maximal effect; tags tell the direction and shape of the fitted curve.

Compound | activity change, negative = growth inhibition | Potency
COc1ccccc1N1CC=C(c2cccc([N+](=O)[O-])c2)NC1=O | inactive: 10.1% | –
C=CC(N)CCC(=O)O (configuration not stated) | – | inactive
COc1cccc(CNC(=O)c2sc3nc4n(c(=O)c3c2C)CCC4)c1 | – | inconclusive [inhibitor, partial curve]
O=C(Nc1ccc(-c2nc3ccccc3s2)c(O)c1)C1=COCCO1 | inactive: -25.6% | –
CCCC1c2ccsc2CCN1C(=S)NC (configuration not stated) | – | inconclusive [inhibitor, partial curve]
CCN1C(=NCCc2ccc([N+](=O)[O-])cc2)N[C@@H](c2ccccc2)[C@H](C(=O)OC)[C@H]1C | – | active: 14.6 µM
CC1(C)CC2CC(C)(CN2C(=S)Nc2ccccc2F)C1 (configuration not stated) | – | active: 13 µM
C=CCN(c1ccc(C(=O)Nc2ccc(C)c(C)c2)cc1)S(C)(=O)=O | – | inconclusive [inhibitor, single point]
COc1cccc(/C=C(/C#N)c2nc3ccccc3[nH]2)c1OC(C)C(=O)O (configuration not stated) | inactive: -2.2% | –
CCOC(=O)c1ccccc1NC(=O)c1cc2c(s1)-c1c(C)cccc1OC2 | inactive: -8.8% | –
O=C1CC(C(=O)N2CCc3ccccc32)CN1c1ccccc1 (configuration not stated) | inactive: -11.6% | –
CCCCCNC(=O)C(c1cccc2ccccc12)n1c(=O)c(-c2ccccc2)nc2ccccc21 (configuration not stated) | – | active: 14.6 µM
COc1ccccc1NC(=O)c1ccc(S(=O)(=O)NCc2ccco2)cc1 | – | inconclusive [inhibitor, single point]
COc1cc(CCC(=O)Nc2c(C(=O)N3CCN(c4ccccc4)CC3)oc3ccccc23)on1 | – | active: 16.4 µM
COc1ccc(S(=O)(=O)Nc2cc3c4c(c2)CC(=O)N4CCC3)cc1C | – | inconclusive [inhibitor, partial curve]
COc1ccccc1NC(=O)c1cc(S(=O)(=O)NCc2ccccc2)ccc1F | – | inconclusive [inhibitor, single point]
CCOc1ccc2c(c1)-c1c(ssc1=S)C(C)(C)N2C | – | inconclusive [inhibitor, single point]
COC(=O)N1CCCC(c2cc(C(=O)Nc3ccccc3Cl)no2)C1 (configuration not stated) | inactive: 1.27% | –
O=C(O)c1ccc(-c2ccc(Cl)cc2Cl)o1 | inactive: -2.12% | –
CC(OC(=O)c1cc(O)c2ccccc2c1O)C(=O)Nc1ccc(C(N)=O)cc1 (configuration not stated) | – | inconclusive [inhibitor, single point]
Cc1cc(C)c2cc(C#N)c(N3CCCN(C(=O)c4cnccn4)CC3)nc2c1 | – | active: 18.4 µM
Cc1cc(NC(=O)CN2CCN(C/C=C/c3ccccc3)CC2)c([N+](=O)[O-])cc1C | – | inconclusive [inhibitor, partial curve]
